Assay results published in article PMC5606850, “Acidic C-terminal domains autoregulate the RNA chaperone Hfq” (eLife, 2017).

B1: E. coli Hfq102-R16A (natural protein)
chain: not shown
notes: probably made as Hfq102; source: purified Hfq protein
B2: E. coli Hfq-sCTD (Hfq with shortened CTD linker, lacks residues 86-96) (natural protein)
chain: not shown
notes: Hfq, E. coli, full-length background (Hfq102) with the linker residues 86-96 (inclusive) deleted; Untagged; also called Hfq102-sCTD
B3: E. coli Hfq65 (Hfq core; truncated variant lacking the CTD) (domain or fragment)
chain: not shown
notes: Untagged; Forms a homohexameric ring; also called core Hfq; Hfq65 core
B4: E. coli Hfq65-K47A (domain or fragment)
chain: not shown
notes: Hfq, E. coli, core […], rim mutation K47A; Untagged; made by site-directed mutagenesis of pET21b-Hfq
B5: E. coli Hfq65-Q35A (domain or fragment)
chain: not shown
notes: Hfq, E. coli, core […], mutation Q35A; Untagged; made by site-directed mutagenesis of pET21b-Hfq
B6: E. coli Hfq65-R16A (domain or fragment)
chain: not shown
notes: Hfq, E. coli, core […], rim mutation R16A; Untagged; made by site-directed mutagenesis of pET21b-Hfq
B7: E. coli Hfq65-R19D (domain or fragment)
chain: not shown
notes: Hfq, E. coli, core […], rim mutation R19D; Untagged; made by site-directed mutagenesis of pET21b-Hfq

Target: the molecule itself
Test: SDS-PAGE of SDS-stable oligomers; ~2.8 µg purified Hfq protein, prepared in 2% SDS and boiled, 4–20% SDS-PAGE, Coomassie blue

Row | Protein | stoichiometry N
1 | B1 | 6
2 | B2 | 12 and 6
3 | B3 | 6
4 | B4 | 6
5 | B5 | 6
6 | B6 | 6
7 | B7 | 6

“And” between values parts separate entries of the source, which are not always exact repeats. Identical values can stand only once.
